Converted amounts (≈) assume the structure as drawn.
Key:
[1] = test system: DNA, RNA, and protein synthesis in E. coli tolC cultures; settings: E. coli tolC mutant and S. aureus cultures; cited from earlier work
[2] = test system: DNA, RNA, and protein synthesis in E. coli tolC cultures; experiment: macromolecular synthesis (MMS) assay; settings: for specific inhibition of protein synthesis in cells (MMS): E. coli tolC cells

| Compound | specific inhibition of protein synthesis in cells (MMS) [2] | other results |
| --- | --- | --- |
| O=c1[nH]c(-c2ccccn2)nc2c1CN(Cc1ccccc1Cl)CC2 [Compound 323219] | specific inhibition of protein synthesis | MMS data: specificity for protein synthesis in the cell [1]: specific inhibitors of protein synthesis in the cell; IC50 in MMS assay ([2]; E. coli tolC cultures, compound titrated): 6.2 µg/mL (≈ 17.6 µM) |
| O=c1[nH]c(-c2ccccn2)nc2c1CN(Cc1ccc(Cl)cc1)CC2 [Compound 323216] | specific inhibition of protein synthesis | – |
| O=c1[nH]c(-c2ccccn2)nc2c1CN(Cc1cccc(Cl)c1)CC2 [Compound 323220] | specific inhibition of protein synthesis | – |
| O=c1[nH]c(-c2ccccn2)nc2c1CN(CCc1ccc(Cl)cc1)CC2 [Compound 323370] | – | MMS data: specificity for protein synthesis in the cell [1]: specific inhibitors of protein synthesis in the cell |
| COc1ccc(CN2CCc3nc(-c4ccccn4)[nH]c(=O)c3C2)c(C)c1C [Compound 323202] | specific inhibition of protein synthesis | – |
| CC[C@H]1OC(=O)C[C@@H](O)[C@H](C)[C@@H](O[C@@H]2O[C@H](C)[C@@H](O[C@H]3C[C@@](C)(O)[C@@H](O)[C@H](C)O3)[C@H](N(C)C)[C@H]2O)[C@@H](CC=O)C[C@@H](C)C(=O)/C=C/C(C)=C/[C@@H]1CO[C@@H]1O[C@H](C)[C@@H](O)[C@@H](OC)[C@H]1OC [tylosin, reference compound] | – | IC50 ([2]; Escherichia coli, read-out: IC50 in MMS assay): 11.6 µg/mL (≈ 12.7 µM) |
| COc1cc(Cl)cc(CN2CCc3nc(-c4ccccn4)[nH]c(=O)c3C2)c1OC [Compound 323203] | specific inhibition of protein synthesis | – |
